The results in this text go back to the supplement of paper PMC10126150.

Sequences with one replicate were seen in a single cluster, so their values are uncertain.

The subject of this data set is ATP. Briefly: switch fluorescence ratio, 500 uM ATP over buffer (Cy3 cluster intensity, sum of 5 cycles each) (fold (ratio)); higher = stronger signal-on switching upon ATP binding; sequences stand for … in TCGTCGGCAGCGTCAGATGTGTATAAGAGACAGTTTTTTTTTTTTTTTTTTTTTTTTT…TC. The settings on record: aptamer strand: ATP DNA aptamer (quencher-CACCTGGGGGAGTATTGCGGAGGAAGG + anchor), 100 nM annealed; ATP concentration: 500 uM; one replicate. Summed up: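 Imaging in selection buffer was followed by imaging after 15 min with 500 uM ATP at 22 °C, for Cy3-labelled switching-strand clusters annealed to 100 nM quencher-labelled ATP aptamer on a modified Illumina MiSeq flow-cell. Five of these buffer/ATP cycles ran, separated by NaOH stripping and re-annealing. The fluorescence ratio per cluster is summed target-cycle over summed buffer-cycle Cy3 intensity, averaged per switch-domain sequence; clusters outside 100-1000 RFU were removed.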
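Also: ATP exposure 15 min at 22 °C before imaging.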

As to TCTGAACCTA, the switch fluorescence ratio amounted to 1.01.

Consider TGGGGCCAGG, for which the switch fluorescence ratio is 1.06.

Take TAGTGGGTAT: the switch fluorescence ratio was found to be 1.01.

On to AAAAAGGCTT, for which the switch fluorescence ratio came to 1.06.

Consider CGTCTTGCGA, for which the switch fluorescence ratio is 0.97.

For the sequence CGGGGAAGCC, the switch fluorescence ratio came out at 0.998.

Consider CGAGTGAACT, for which the switch fluorescence ratio is 0.964.

For the sequence CAGGGATTAT, the switch fluorescence ratio was 1.

Consider TACAGGGGAG, for which the switch fluorescence ratio is 1.02.

With ACGTTGACTT, the switch fluorescence ratio came to 1.14.

Turning to GCTAAAGCTC, the switch fluorescence ratio is 1.01.

As for GTTTACACGA, the switch fluorescence ratio was found to be 1.01.

Regarding TAGATAGGAG, the switch fluorescence ratio worked out at 1.01.

Take GCCAAAGTAG: the switch fluorescence ratio was 0.995.

As to GGGAGTAATG, the switch fluorescence ratio worked out at 1.41.

As for AATACGTAG, the switch fluorescence ratio came to 1.04.

Consider GAGTAAAGC, for which the switch fluorescence ratio was found to be 0.984.

As for GTCATGGAAG, the switch fluorescence ratio was 0.992.

On to TACGGACATC, for which the switch fluorescence ratio was determined as 1.37.

In the case of GCCAATGGAT, the switch fluorescence ratio was 1.06.

As to ATTCAAGCGA, the switch fluorescence ratio is 1.05.

Take CGGTCCATTT: the switch fluorescence ratio was determined as 0.965.

For CCAGGTACAG, the switch fluorescence ratio was 1.09.

For CTTAGTGGGT, the switch fluorescence ratio was 0.995.

Turning to TCCTAAACAG, the switch fluorescence ratio was 1.01.

In the case of TTTCGGAGAC, the switch fluorescence ratio stood at 1.03.

On to GACGTAGGGA, for which the switch fluorescence ratio was 1.03.

For the sequence TTTGTTCTAC, the switch fluorescence ratio is 1.12.

Take AAGTATTGCA: the switch fluorescence ratio worked out at 0.999.

In the case of CCTAGCCTGA, the switch fluorescence ratio was found to be 1.05.

Take ATAACTGACG: the switch fluorescence ratio was 1.07.

Take CGTTGAGTGG: the switch fluorescence ratio came out at 1.06.

Consider CACATTGAGC, for which the switch fluorescence ratio stood at 1.02.

In the case of ACACGTGTGC, the switch fluorescence ratio came out at 1.01.

For CTCTTCTACC, the switch fluorescence ratio came to 1.12.

As to GTATATATGC, the switch fluorescence ratio was determined as 1.

For ATGCCAACAT, the switch fluorescence ratio stood at 0.964.

On to CAATGCGTC, for which the switch fluorescence ratio worked out at 1.01.

For AACTGGCATC, the switch fluorescence ratio worked out at 1.04.

As to TCTAATCCAG, the switch fluorescence ratio came to 0.947.

For GGCTAAAGGG, the switch fluorescence ratio was found to be 1.

GACACGCGCT: the switch fluorescence ratio is 0.983.

Turning to AACTCGCGAA, the switch fluorescence ratio is 1.09.

Turning to AGGGGTTTT, the switch fluorescence ratio was 1.02.

CAATATGCTT: the switch fluorescence ratio is 1.02.

For ACGTAAGAAG, the switch fluorescence ratio is 1.1.

As for GACGTATCGA, the switch fluorescence ratio was determined as 1.01.

On to CTGTTGGGAG, for which the switch fluorescence ratio came out at 0.985.

Turning to TCCTATCTGA, the switch fluorescence ratio was found to be 1.01.

As to GGGAAGACCA, the switch fluorescence ratio was 1.06.

Take TCTTCTGTCT: the switch fluorescence ratio is 0.961.

Take CCAGTAAAG: the switch fluorescence ratio stood at 1.02.

Regarding AACGCCTTGG, the switch fluorescence ratio was found to be 1.01.

As to CGCCTCCAGG, the switch fluorescence ratio worked out at 4.92.

As to ATCAAGTTTG, the switch fluorescence ratio stood at 1.

For the sequence GAAGGGTTGC, the switch fluorescence ratio is 0.974.

For the sequence ATTTCTGCAA, the switch fluorescence ratio amounted to 2.88.

Consider TCAGGAGGTC, for which the switch fluorescence ratio is 0.937.

GAACATTGGG: the switch fluorescence ratio is 1.

For the sequence CCGCTACGGG, the switch fluorescence ratio came out at 1.92.

For the sequence TGCCACCGCG, the switch fluorescence ratio worked out at 1.2.

As for GGCAACCAAC, the switch fluorescence ratio worked out at 1.14.

As to CGTTCTTGG, the switch fluorescence ratio came out at 0.989.

With ATGATTCTTC, the switch fluorescence ratio is 0.987.

As to TACACTTCCC, the switch fluorescence ratio came to 1.26.

Take GACCTATGGT: the switch fluorescence ratio was determined as 1.02.

Take AGTCAGGCGC: the switch fluorescence ratio was 1.02.

As to CGTTCAGCTG, the switch fluorescence ratio is 0.959.

Turning to GGTACCGCTT, the switch fluorescence ratio is 1.05.

Turning to CAGCGAATCA, the switch fluorescence ratio stood at 0.968.

With CTCCGGACTG, the switch fluorescence ratio was found to be 1.15.

For the sequence ACCGCGGGCT, the switch fluorescence ratio is 1.01.

As to TGGAGACGGT, the switch fluorescence ratio was determined as 1.25.

Take ACCGGAAACC: the switch fluorescence ratio is 1.13.

With GGTATCTTGA, the switch fluorescence ratio was 0.995.

Consider CAGGGGACTA, for which the switch fluorescence ratio was determined as 1.02.

As to ATACCCTGAA, the switch fluorescence ratio amounted to 0.98.

Take CAATTTGGGA: the switch fluorescence ratio was 0.958.

Consider TCTGGGGACC, for which the switch fluorescence ratio amounted to 1.02.

Consider TTAAAGGGG, for which the switch fluorescence ratio is 1.01.

Turning to GATTTACTT, the switch fluorescence ratio is 1.04.

For the sequence AGACGTCAGG, the switch fluorescence ratio was 0.98.

In the case of TGATGTATCG, the switch fluorescence ratio amounted to 0.98.

Turning to TTAACCGGCC, the switch fluorescence ratio was 1.94.

In the case of AGTTTAATGA, the switch fluorescence ratio stood at 1.06.

For the sequence AAGAGGTACT, the switch fluorescence ratio turned out to be 1.01.

Consider GCACCTAGGG, for which the switch fluorescence ratio came out at 0.973.

TCAGTCTGAC: the switch fluorescence ratio turned out to be 0.979.

TTAGTATGCC: the switch fluorescence ratio stood at 0.994.

For TCCCGCCGCC, the switch fluorescence ratio is 3.74.

In the case of AAATGGGGCG, the switch fluorescence ratio is 0.993.

GTTGCTGTGC: the switch fluorescence ratio amounted to 1.02.

For the sequence GTAACCGACG, the switch fluorescence ratio came to 1.27.

Consider GCCTTATTTG, for which the switch fluorescence ratio turned out to be 1.01.

For the sequence GGGAGTTGTC, the switch fluorescence ratio is 0.986.

ACACAAATAG: the switch fluorescence ratio was 1.03.

On to GGCCTAACTT, for which the switch fluorescence ratio amounted to 1.01.

In the case of ACTTGGGGCG, the switch fluorescence ratio worked out at 1.05.

With GTTCCGTCGC, the switch fluorescence ratio amounted to 1.4.

CTCGTTACCG: the switch fluorescence ratio was determined as 1.1.

For the sequence AGGGTCGATT, the switch fluorescence ratio was determined as 1.

Turning to CCATGCAGCA, the switch fluorescence ratio was determined as 1.04.

CATATTACAA: the switch fluorescence ratio is 1.02.

With TGGGGTCCTC, the switch fluorescence ratio is 0.982.

Turning to AAAAACGTTC, the switch fluorescence ratio turned out to be 1.04.

Turning to CTGGTTGCCA, the switch fluorescence ratio was 0.978.

Take TCCAGATATT: the switch fluorescence ratio came out at 0.939.

For the sequence AAAAAGATCG, the switch fluorescence ratio came to 0.925.

Turning to CCGGGCCGCT, the switch fluorescence ratio was found to be 1.08.

TGGCGTTGAG: the switch fluorescence ratio was 0.992.

In the case of CTAACTGCTA, the switch fluorescence ratio was determined as 1.14.

Turning to TAACGTTGCC, the switch fluorescence ratio is 1.01.

For the sequence GTTCTTGAGA, the switch fluorescence ratio came out at 1.01.

For AAAATTTACC, the switch fluorescence ratio stood at 1.01.

GTTAATTATG: the switch fluorescence ratio worked out at 0.985.

Consider TGTGCTCG, for which the switch fluorescence ratio was 1.01.

On to AGCGGGTCAC, for which the switch fluorescence ratio turned out to be 0.99.

For CGCACAGCTC, the switch fluorescence ratio came out at 1.98.

In the case of CCTCATCTGA, the switch fluorescence ratio amounted to 1.14.

TTTCTCATGT: the switch fluorescence ratio was 0.996.
